# Experimental data published in PubChem BioAssay AID463173 (ICCB-Longwood Screening Facility, Harvard Medical School, 2010).
# Hit rate of the full screen: of about 52,000 compounds, about 1,700 (3.3%) were called active. No stated cut-off is given here; in the data, active means survival mostly below about 52% (no sharp cut-off); inactive means mostly above about 56%. This is one part of the list.
# Test system: Wild type
# Assay: S. aureus survival, RN4220 and DeltatarO strains – OD600, teichoic acid synthesis inhibitors, primary screen (AID 463173)
# Conditions: S. aureus RN4220 wild type/DeltatarO growth, OD600, 18 h, active compounds read low, screened at 18.75 µg/mL (by protocol)
row,Structure (SMILES),survival
1,COc1cc(CNc2ccc3[nH]c(=O)[nH]c3c2)cc(Cl)c1OCc1ccccc1F,inactive: 86%
2,Cc1ccc(-c2nonc2NC(=O)c2ccco2)cc1C,inactive: 79%
3,Cc1ccc(-c2nn(CC(=O)Nc3cccc(C(F)(F)F)c3)c(=O)c3ccccc23)cc1,inactive: 67%
4,Cc1ccc(CNC(=O)c2ccc3c(c2)N(Cc2cccc(C)c2)C(=O)CS3)cc1,inactive: 66%
5,Cc1oc(C)c2c(=O)cc(-c3ccc4c(c3)OCO4)cc(OC(=O)c3ccc(Cl)cc3)c12,inactive: 112%
6,CCC(Sc1nc2ccccc2c2nc(CCc3c(C)n[nH]c3C)nn12)C(=O)Nc1ccccc1F (configuration not stated),inactive: 91%
7,COc1ccccc1Cn1c(CNS(=O)(=O)c2cccc([N+](=O)[O-])c2)nc2cccnc21,inactive: 55%
8,Cc1cccc(C)c1NC(=O)CSCc1cnn(-c2ccccc2)c1-n1cccc1,inactive: 74%
9,COc1ccc(C)cc1NC(=O)CCn1nc(C)cc1C,inactive: 121%
10,CCN(CC)C(=O)C1=C(C)Nc2nc3ccccc3n2C1c1cccc(Cl)c1 (configuration not stated),inactive: 77%
11,CCOC(=O)c1c(C)n(C(=O)c2ccco2)c(=O)n1C(=O)c1ccco1,inactive: 112%
12,COC(=O)c1ccc(NC(=O)CSc2n[nH]c(CC(C)C)n2)cc1,inactive: 69%
13,O=C(O)C1C2C=CC(C2)C1C(=O)NCCCN1CCOCC1 (configuration not stated),inactive: 110%
14,CC1CCN(CC(C)OC(=O)c2ccc3c(c2)OCCO3)CC1 (configuration not stated),inactive: 104%
15,O=C(CN1CCCC1)Nc1nc(-c2ccc3c(c2)CCN3C(=O)C2CC2)cs1,inactive: 116%
16,COc1ccc(CNC(=O)c2cc3cccc(OC)c3oc2=O)cc1,inactive: 90%
17,COc1cccc(CNC(=O)c2nn(C)c3c2CS(=O)(=O)c2ccccc2-3)c1,inactive: 81%
18,Nc1nc2c(c(=O)[nH]1)CCC2,inactive: 99%
19,CCn1cc(C(=O)N2CCN(c3ccc(OC)cc3)CC2)c(=O)c2cc(S(=O)(=O)N(C)C3CCCCC3)ccc21,inactive: 128%

row,Structure (SMILES),survival
1,COc1ccc(NC(=O)CSC2=Nc3ccccc3C3=NC(CCC(=O)NCCc4ccccc4)C(=O)N23)c(OC)c1 (configuration not stated),inactive: 70%
2,O=C(NCc1ccco1)c1ccc2c(c1)N(Cc1ccccc1F)C(=O)c1ccccc1S2=O (configuration not stated),inactive: 87%
3,c1cc(CNc2ccc3c(c2)OCCO3)ccn1,inactive: 109%
4,Cc1cccc(OC(=O)c2cc(-c3ccc(Cl)cc3)on2)c1C,inactive: 116%
5,N#Cc1c(N)nc(SCC(=O)c2cc3ccccc3oc2=O)c(C#N)c1-c1ccc(O)cc1,inactive: 108%
6,CC(C)CN(CCCNC(=O)c1cn(C)c2ccc(S(=O)(=O)N(C)C3CCCCC3)cc2c1=O)CC(C)C,inactive: 89%
7,COc1cccc(NC(=O)C(CCSC)NC(=O)C2CCC(C)CC2)c1 (configuration not stated),inactive: 92%
8,COc1ccc(CNC(=O)c2cc(C)nc3c2c(C)nn3-c2cccc(Cl)c2C)cc1,inactive: 72%
9,CC1(C)NC(=O)N(CC(O)CN(Cc2ccccc2)Cc2ccccc2)C1=O (configuration not stated),inactive: 103%
10,COc1ccc(C)cc1NC(=O)CC(=O)Nc1ccc2nc3n(c(=O)c2c1)CCCCC3,inactive: 116%
11,CCOc1ccc(S(=O)(=O)N(C(=O)c2ccncc2)c2ccc3oc(C)c(C(=O)OC)c3c2)cc1,inactive: 129%
12,CCOc1ccc(C2=CC(c3cc(Br)ccc3F)n3ncnc3N2)cc1Cl (configuration not stated),inactive: 64%
13,CC(C)CSc1oc(-c2ccco2)nc1S(=O)(=O)c1ccc(Br)cc1,active: 27%
14,CCOc1ccc(-n2c(=O)c3c(C)c(C)sc3n(Cc3cc(=O)n4cc(Cl)ccc4n3)c2=O)cc1,inactive: 92%
15,CN(C(=O)CSc1nc2ccccc2n1Cc1cccc(C(F)(F)F)c1)c1ccccc1,inactive: 87%
16,Cc1nn(CC(=O)Nc2cccc(C(F)(F)F)c2)c(=O)c2nn(-c3ccccc3)c(C)c12,inactive: 78%
17,CCOC(=O)c1c(NC(=O)Cn2nnc3ccccc32)sc2c1CCC(C)C2 (configuration not stated),inactive: 104%
18,O=C(NCCc1csc(-c2ccc(F)cc2)n1)c1c(F)cccc1Cl,inactive: 127%
19,O=C(COC(=O)c1cc(-c2ccccc2)nc2c(Cl)cccc12)c1ccc(F)cc1,inactive: 81%

row,Structure (SMILES),survival
1,Cc1ccc(NC(=O)c2ccc3[nH]c(C)cc(=O)c3c2)c(C)c1,inactive: 85%
2,Cc1ccc(NC(=O)Cc2coc3c(C)c(C)ccc23)cc1Cl,inactive: 93%
3,CC1(C)CC(=O)C2=C(C1)Nc1ccccc1N1C(=O)c3ccccc3C21 (configuration not stated),inactive: 114%
4,Cc1ccc(CCNC(=O)c2cc(-c3ccc(Cl)cc3)n[nH]2)cc1,inactive: 97%
5,Cc1ccc(Nc2cc(C(=O)NCc3cccs3)c3ccccc3n2)c(C)c1,inactive: 91%
6,COc1ccccc1CN1CCN(C2CCN(C(=O)NC(C)C)CC2)C(=O)C1=O,inactive: 74%
7,COc1ccc(Nc2ncc3c(n2)CCN(C(=O)OC(C)(C)C)C3)cc1,inactive: 71%
8,COc1cc2ccccc2cc1C(=O)Nc1ccc2oc(-c3ccccc3)nc2c1,active: 4%
9,CCOc1ccccc1C(=O)N(Cc1cccs1)c1ccc(Cl)cc1,inactive: 86%
10,CC(C)Cc1nnc(NC(=O)c2ccccc2)s1,inactive: 97%
11,CCc1ccc2c(c1)-c1ccccc1S(=O)(=O)N2CC(=O)N1CCC(C)CC1,inactive: 82%
12,Cc1ccccc1CNC(=O)CCC(=O)N1CC2CCCN2c2ccccc21 (configuration not stated),inactive: 65%
13,Cc1cc(O)c(-c2ccnc3cc(-c4ccccc4)nn23)cc1Cl,inactive: 108%
14,CC(=O)c1ccc(NC(=O)Cn2ncc3c(C)n(Cc4ccc(F)cc4)c(C)c3c2=O)cc1,inactive: 74%
15,CCN(CC)N=Nc1ccc(C(=O)O)cc1,inactive: 111%
16,COc1ccccc1C(=O)Nc1nc2nc(C)c(Cc3ccccc3)c(=O)n2[nH]1,inactive: 113%
17,CCSc1nc(Cl)c2ccccc2n1,inactive: 103%
18,COc1ccccc1CNc1ncnc2c1c(-c1ccccc1)cn2-c1cccc(C)c1,inactive: 74%
19,CC1CCN(S(=O)(=O)c2ccc3c(c2)N(CC(=O)N2CCN(c4ccccc4)CC2)C(=O)CO3)CC1,inactive: 87%
